PMC4336329 (PLoS ONE, 2015)
Hit rate of the full screen: of about 310,000 compounds, about 14,000 (4.5%) showed an effect of 50% or more. The effect is printed as a negative number. The list shows a part of the results.

Molecular target: human ether-à-go-go-related gene (hERG) potassium channel (human, UniProt Q12809)
Experiment: primary screen, population patch clamp on CHO cells stably expressing hERG
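Note: peak tail current of the secondary pulse compared with the same well before compound.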

Sequence of human ether-à-go-go-related gene (hERG) potassium channel (Q12809 whole entry, looked up): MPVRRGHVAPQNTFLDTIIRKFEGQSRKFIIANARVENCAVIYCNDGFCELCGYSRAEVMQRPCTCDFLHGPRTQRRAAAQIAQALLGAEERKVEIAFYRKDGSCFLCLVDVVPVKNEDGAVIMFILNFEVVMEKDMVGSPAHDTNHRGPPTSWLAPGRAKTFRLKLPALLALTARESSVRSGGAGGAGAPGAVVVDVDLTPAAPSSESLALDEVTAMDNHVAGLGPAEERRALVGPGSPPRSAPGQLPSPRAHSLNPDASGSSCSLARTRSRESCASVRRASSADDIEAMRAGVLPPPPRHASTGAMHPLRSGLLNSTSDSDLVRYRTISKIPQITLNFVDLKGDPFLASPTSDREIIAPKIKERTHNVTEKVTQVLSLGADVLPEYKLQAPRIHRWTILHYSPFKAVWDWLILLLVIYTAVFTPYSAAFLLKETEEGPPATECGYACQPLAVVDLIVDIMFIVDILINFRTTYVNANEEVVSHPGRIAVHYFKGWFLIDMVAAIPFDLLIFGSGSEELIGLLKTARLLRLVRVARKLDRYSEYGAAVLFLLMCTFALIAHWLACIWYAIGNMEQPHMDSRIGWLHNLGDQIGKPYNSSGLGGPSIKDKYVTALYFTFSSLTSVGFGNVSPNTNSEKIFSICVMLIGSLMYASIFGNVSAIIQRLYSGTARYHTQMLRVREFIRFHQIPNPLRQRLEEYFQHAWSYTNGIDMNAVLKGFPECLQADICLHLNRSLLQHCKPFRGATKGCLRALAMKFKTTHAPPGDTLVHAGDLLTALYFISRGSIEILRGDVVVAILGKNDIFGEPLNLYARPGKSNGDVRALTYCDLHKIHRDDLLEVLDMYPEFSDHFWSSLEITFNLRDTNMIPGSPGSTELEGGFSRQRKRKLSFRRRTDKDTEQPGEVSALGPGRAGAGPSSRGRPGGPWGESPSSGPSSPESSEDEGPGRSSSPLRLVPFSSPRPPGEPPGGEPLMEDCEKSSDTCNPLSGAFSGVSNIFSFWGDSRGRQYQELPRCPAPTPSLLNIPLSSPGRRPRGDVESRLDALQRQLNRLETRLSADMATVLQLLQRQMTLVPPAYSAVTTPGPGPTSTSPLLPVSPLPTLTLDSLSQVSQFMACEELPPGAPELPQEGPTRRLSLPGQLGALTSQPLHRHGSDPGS

SMILES | hERG current change (%, negative = inhibition) at 10uM
O=C(Oc1ccc2c(c1)O/C(=C\c1ccncc1)C2=O)c1cccs1 | -2.41%
O=C(Nc1ccc(Cl)c(Cl)c1)c1ccccc1NC(=O)C1CC=CCC1C(=O)O (stereo not shown) | 1.71%
O=C(/C=C/c1ccc(Cl)c(Cl)c1)NCCCn1ccnc1 | -41.7%
COc1ccc(C(=O)NCc2nnc(SCC(=O)Nc3nnc(C)s3)o2)cc1OC | -5.52%
CCN1CCN(S(=O)(=O)c2ccc(Cl)c(C(=O)NCc3ccco3)c2)CC1 | -1.33%
Cc1ccc(C)c(NC(=S)NNc2ccc(F)cc2F)c1 | 5.57%
CCc1c(C)nc(N2CCN(Cc3ccc4c(c3)OCO4)CC2)[nH]c1=O | 5.17%
Cc1cccc(NC(=O)c2cc(=O)c3ccccc3o2)n1 | -17.6%
O=C(Nc1ccccc1)Nc1nc(-c2ccc(Cl)cc2)cs1 | 20.5%
C#CCOCCOCCOCCNc1nc(N2CCOCC2)nc(N2CCN(C(=O)CCCCCCCCCCNC(=O)[C@H](CO)n3cc(CCCSC)nn3)CC2)n1 | -0.214%
CN(CC(=O)Nc1ccc(Cl)cc1)C(=O)CCc1ccccc1 | 5.55%
O=C(COc1ccccc1Cc1ccccc1)Nc1cccc(S(=O)(=O)N2CCOCC2)c1 | -3.73%
CCCCc1nc2cc(C(=O)N3CCCC(OCCC)C3)ccc2o1 (stereo not shown) | 9.53%
CC(C)NC(=O)c1ccc(CN2CCC(Cc3ccccc3)CC2)cc1 | -37.2%
CC(=O)c1ccc([N+](=O)[O-])cc1 | 15.7%
Cc1cc2nc(C3CCCN(C(=O)NCc4ccccc4)C3)[nH]c2cc1C (stereo not shown) | -45.7%
Cc1ccc(N2CN(CCc3ccccc3)CNC2=S)cc1 | 11.6%
Cc1sc(N)nc1-c1ccc(Oc2ccccc2)cc1 | 5.92%
COc1cc2[nH]c(=O)n(CCCCCC(=O)N3CC=C(c4ccccc4)CC3)c(=O)c2cc1OC | -20%
Cc1cc([N+](=O)[O-])nn1CCCC(=O)Nc1cccnc1Cl | 11.4%
CC(=O)N(c1cccc(Cl)c1)c1nc(C)cc(C)c1C#N | 9.28%
Cc1cc(C)nc(SCCS(=O)Cc2ccc(Cl)cc2)n1 (stereo not shown) | 2.89%

SMILES | hERG current change (%, negative = inhibition) at 10uM
O=C(COC(=O)c1ccccc1Cl)Nc1nccs1 | 13.9%
O=C(CSc1nc2ccccc2o1)Nc1cc(C(F)(F)F)ccc1N1CCOCC1 | -7.46%
Cc1ccc(-c2csc(C(C#N)=C3CCCC3)n2)cc1 | 4.11%
OCCNc1c2c(nc3ccccc13)CCCC2 | -39%
O=C(Nc1cccc(NC(=O)c2ccc([N+](=O)[O-])o2)c1)c1ccco1 | 9.11%
C=CCC(=O)NC1CC(C)(C)Cc2c1cnn2-c1ccc(C)cc1 (stereo not shown) | -69.7%
CCCn1c(NC(=O)C2CCN(C(=O)c3ccccc3C)CC2)nc2ccccc21 | -16%
O=C(CSCc1nc2ccccc2[nH]1)Nc1ccccc1 | 8.41%
O=C(N1CCOCC1)C12CC3CC(C1)CC(C(=O)N1CCOCC1)(C3)C2 | 2.89%
CCOC(=O)c1nn(-c2ccc(C)c(Cl)c2)c(=O)c(C#N)c1C | 10.8%
COc1ccc(CN2CCNC(=O)C2CC(=O)NC2CCCCCCC2)cc1C (stereo not shown) | 15.8%
Cc1ccc(S(=O)(=O)Nc2nc3ccccc3nc2NCC2CCCO2)c(C)c1 (stereo not shown) | 2.84%
COc1ccccc1N1CCN(CCCCOc2ccc(F)cc2)CC1.Cl | -72.8%
Cn1c(=O)oc2cc(C(=O)c3ccccc3)ccc21 | -7.43%
COc1cccc(C(=O)NC2CCCc3ccccc32)c1 (stereo not shown) | 2.71%
O=S(=O)(Nc1cccc(-c2ccc(N3CCCCCC3)nn2)c1)c1ccc(F)cc1 | 13.7%
Cl.O=C(NCCCN1CCOCC1)c1coc2ccccc2c1=O | -0.609%
COCCCNC(=O)CCc1nnc(Cc2ccc(-c3ccccc3)cc2)o1 | 3.02%
O=C(NCC(c1ccco1)N1CCc2ccccc2C1)c1cccc(Br)c1 (stereo not shown) | -5.34%
CCOC(=O)C1CCCN(C(=S)NC(=O)/C=C/c2ccc(F)cc2)C1 (stereo not shown) | 0.886%
CCCCn1c(-c2ccncc2)nc2c1c(=O)[nH]c(=O)n2CC(C)C | 5.44%
COc1ccc(N=C2SC(CC(=O)Nc3ccc(OC)cc3OC)C(=O)N2C)cc1 (stereo not shown) | -10.5%

SMILES | hERG current change (%, negative = inhibition) at 10uM
COc1cccc(C(C#N)N2CCCCC2)c1O (stereo not shown) | -2.29%
CCCC(=O)N(C)C1=Nc2ccc(Cl)cc2C(c2ccccc2)=[N+]([O-])C1 | 9.83%
CC(=O)Nc1ccc(C(=O)OCC(=O)N(c2ccccc2)C2CCS(=O)(=O)C2)cc1 (stereo not shown) | 9.51%
COc1ccc2oc(C)c(C(=O)NN)c2c1 | -1.4%
COc1ccc(C2N(C(=O)C(F)(F)F)C(C)CN2S(=O)(=O)c2ccc(C)cc2)cc1 (stereo not shown) | 11.2%
CC(=O)Nc1nc(C)c(C(C)(C)C)s1 | -4.84%
CCOc1ccccc1NC(=O)NNC(=O)COc1cccc(C)c1C | -4.61%
Cc1nnc2ccc(N3CCN(c4ccccn4)CC3)nn12 | -57%
CCOc1ccc(CCNC(=O)c2ccc(CS(=O)Cc3ccc(Cl)cc3)o2)cc1 (stereo not shown) | -14.1%
O=C(c1ccc2c(=O)n3c(nc2c1)CCCCC3)N1CCN(c2ccccc2)CC1 | -17.2%
Cc1ccc(-c2nn(-c3ccccc3)cc2C(=O)NCCCN2CCOCC2)cc1 | 5.05%
CCC(C)[C@H](NC(=O)[C@@H]1Cc2ccccc2CN1)C(=O)NCc1ccc(OC)cc1 (stereo partly shown) | -32.7%
C/C(=N\NC(=O)Cc1c(Cl)cccc1Cl)c1cccnc1 | 6.55%
Cc1cn(Cc2ccccc2Cn2cc(C)c(=O)[nH]c2=O)c(=O)[nH]c1=O | 13.1%
COc1ccc2c(c1OC)C(=O)OC2Nc1nc(-c2ccc(-c3ccccc3)cc2)cs1 (stereo not shown) | 17%
CNS(=O)(=O)c1cccc(C(=O)NCC2(N3CCOCC3)CCCCC2)c1 | 9.92%
Cc1cc(NC(=O)CSc2cn(CCNC(=O)c3ccc(Cl)cc3)c3ccccc23)no1 | -7.29%
CCN1CCN(CCCCOc2ccccc2F)CC1.O=C(O)C(=O)O | -9.65%
CCOP(=O)(O)c1ccccc1OCCCCCOc1ccccc1P(=O)(O)OCC | 14.5%
CC1(c2nnc(-c3cccc(Cl)c3)o2)CC(c2ccc(Br)cc2)=NO1 (stereo not shown) | 14.8%
O=C(CSc1nc2ccccc2c(=O)n1-c1ccccc1)N/N=C/C=C/c1ccccc1[N+](=O)[O-] | 10.5%
COC(=O)c1ccc2c(=O)n(CC3CCCO3)c(=S)[nH]c2c1 (stereo not shown) | 11.1%

SMILES | hERG current change (%, negative = inhibition) at 10uM
O=C(/C=C/c1ccc([N+](=O)[O-])o1)NNC(=O)c1ccc(F)cc1 | 2.67%
S=c1[nH]c(-c2ccccc2)cn1/N=C/c1ccc(Br)cc1 | 14.6%
CC(=O)N(c1ccccc1)C1SC(=O)N(c2ccccc2)C1=O (stereo not shown) | 13.9%
Cc1cc(C)c2cc(CN(CCO)Cc3nnnn3Cc3ccccc3)c(=O)[nH]c2c1 | -7.71%
Cc1ccc2c(Cl)c(C(=O)N/N=C/c3cccn3C)sc2c1 | 6.91%
O=C(c1cccc(OC2CCN(C3CCCC3)CC2)c1)N1CCCCCCC1 | -36%
O=C(O)CN(C1CCCCC1)S(=O)(=O)c1ccc(F)cc1 | 5.4%
CCOC(=O)C1CCN(c2c(NCc3ccc(C(=O)NC4CCCC4)cc3)c(=O)c2=O)CC1 | -16.2%
CC1CCc2ccccc2N1C(N)=Nc1ccccc1.Cl (stereo not shown) | 5.35%
COC(=O)c1ccc(C)c(NC(=O)C2CC(=O)N(C3CCCC(C)C3C)C2)c1 (stereo not shown) | -11.5%
C[C@]12CCC3C(CC[C@H]4CC(O)CC[C@]34C)C1CC/C2=N/NC(=O)c1ccncc1 (stereo partly shown) | -10.8%
CN(C)c1ccc(C2CNC(c3ccc(Cl)c([N+](=O)[O-])c3)c3[nH]c4ccccc4c32)cc1.Cl (stereo not shown) | -4.32%
Cc1c(C)n2c(SCC(=O)N3CCCC3)nnc2[nH]c1=O | 3.87%
Cc1ccc(S(=O)(=O)N2CCN(C(=O)c3sccc3-c3ccccc3)CC2)cc1 | -28.9%
CC(O)CC(C(=O)NNc1ccccc1)C(=O)NNc1ccccc1 (stereo not shown) | 21%
COc1cccc(NC(=O)COC(=O)c2cc(S(=O)(=O)N3CCOCC3)ccc2C)c1 | -11.6%
O=c1ccc(-c2nc3ccccc3n2Cc2ccccc2Cl)c[nH]1 | -11.9%
CCOc1ccc(NS(=O)(=O)c2ccc3c(c2)n(C)c(=O)n3C)cc1 | 15.2%
CCc1ccc(C2=NN(CCC(=O)N3CCC4(CC3)OCCO4)C(=O)CC2)cc1 | -10.3%
N/C(=N\OC(=O)C1CCCCC1)c1ccc(Cl)cc1 | 18.2%
NC(=O)C1(C(N)=O)OC1c1ccc(Cl)c(Cl)c1 (stereo not shown) | -9.36%
O=C(CCOc1ccccc1)NCC(c1ccco1)N1CCCCC1 (stereo not shown) | 1.76%
